# The other results are listed elsewhere or left out.
# Experiments:
# [1] = system: HSkMC (human skeletal muscle cells); experiment: cytotoxicity call (relative viability < 0.9); settings: 10 µM
# [2] = system: HepG2; experiment: cytotoxicity call (relative viability < 0.9); settings: 10 µM
# [3] = system: S. aureus RN4220; experiment: growth inhibition call (relative growth <= 0.2); settings: 50 µM
SMILES,cytotoxicity call [1],cytotoxicity call [2],growth inhibition call [3]
C[C@H]1CN([C@@H](C)CO)C(=O)c2cc(C#CC3(O)CCCC3)cnc2O[C@@H]1CN(C)C(=O)C1CCCCC1,inactive,inactive,inactive
Cc1noc(C)c1NC(=O)N(C)C[C@H]1OCCCC[C@H](C)Oc2ccc(NC(=O)Cc3ccccc3)cc2C(=O)N([C@@H](C)CO)C[C@@H]1C,inactive,inactive,inactive
CNC(=N)NCCC[C@H](N)C(=O)O,inactive,inactive,inactive
COc1ccc(S(=O)(=O)N(C)C[C@H]2OCCCC[C@H](C)Oc3ccc(NC(=O)CCC(F)(F)F)cc3C(=O)N([C@@H](C)CO)C[C@@H]2C)cc1,inactive,inactive,inactive
C[C@H]1CN([C@@H](C)CO)C(=O)Cc2cc(NC(=O)CCC(F)(F)F)ccc2O[C@@H]1CN(C)S(=O)(=O)c1cn(C)cn1,inactive,inactive,inactive
C[C@@H]1CN([C@H](C)CO)C(=O)c2cc(NC(=O)Cc3ccccc3)ccc2O[C@@H](C)CCCCO[C@H]1CN(C)Cc1ccc(C(=O)O)cc1,inactive,inactive,inactive
COc1ccccc1C#Cc1ccc2c(c1)O[C@H](CN(C)C(C)=O)[C@@H](C)CN([C@H](C)CO)S2(=O)=O,inactive,inactive,inactive
CCNC(=O)C[C@@H]1CC[C@H]2[C@H](COc3ccc(NS(=O)(=O)c4ccccc4C)cc3C(=O)N2C)O1,inactive,inactive,inactive
CC[C@@]1(C)OC(=O)N(C)C1=O,inactive,inactive,inactive
Cc1cccc[n+]1C,inactive,inactive,inactive
Cc1noc(C)c1NC(=O)Nc1ccc2c(c1)C(=O)N([C@@H](C)CO)C[C@H](C)[C@H](CN(C)Cc1ccncc1)OCCCC[C@H](C)O2,inactive,inactive,inactive
COc1ccc(NC(=O)Nc2ccc3c(c2)C(=O)N([C@H](C)CO)C[C@H](C)[C@@H](CN(C)S(=O)(=O)c2ccc(C)cc2)OCCCC[C@H](C)O3)cc1,inactive,inactive,inactive
CC(C)(ON=C(C(=O)NC1C(=O)N2C(C(=O)[O-])=C(C[n+]3ccccc3)CSC12)c1csc(N)n1)C(=O)O (stereo unspecified),inactive,inactive,inactive
COCC#Cc1cnc2c(c1)C(=O)N([C@@H](C)CO)C[C@@H](C)[C@H](CN(C)C(=O)Nc1cc(F)ccc1F)O2,inactive,inactive,inactive
CN1CCN(C(=O)C[C@H]2C=C[C@@H](NC(=O)c3ccc4c(c3)OCO4)[C@@H](CO)O2)CC1,inactive,inactive,inactive
Cc1ccc(S(=O)(=O)N(C)C[C@@H]2Oc3ccc(NC(=O)Nc4cccc5ccccc45)cc3C(=O)N([C@@H](C)CO)C[C@@H]2C)cc1,inactive,inactive,inactive
CO[C@@H]1CN(C)C(=O)c2ccc(NC(=O)Nc3cccc(Cl)c3)cc2OC[C@H](C)N(C(=O)Nc2c(C)noc2C)C[C@@H]1C,inactive,inactive,inactive
C[C@@H]1CN([C@@H](C)CO)C(=O)c2cccc(NC(=O)Nc3ccc(F)cc3)c2O[C@H]1CN(C)Cc1ccc(Oc2ccccc2)cc1,inactive,inactive,inactive
Cc1ccc(OCc2nnn(CC(=O)NS(=O)(=O)c3c(C)nn(C)c3Cl)c2-c2ccccc2)cc1,inactive,inactive,inactive
Cc1cc(C(=O)Nc2cccc3c2O[C@H](CN(C)Cc2ccncc2)[C@H](C)CN([C@H](C)CO)C3=O)n(C)n1,inactive,inactive,inactive
C[C@H]1CN([C@@H](C)CO)C(=O)c2cc(-c3ccncc3)cnc2O[C@H]1CN(C)S(=O)(=O)c1ccc(F)cc1,inactive,inactive,inactive
O=C(C[C@H]1CC[C@H]2NC[C@@H](O)COC[C@@H]2O1)NCCN1CCCCC1,inactive,inactive,inactive
O=C(C[C@H]1CC[C@H]2[C@@H](COC[C@H](O)CN2C(=O)Nc2ccc(C(F)(F)F)cc2)O1)NCCc1ccncc1,inactive,inactive,active
CC1(C)c2nc(-c3ccc(F)cc3)c(Nc3ccc(F)cc3)n2CCN1C(=O)CN,inactive,inactive,inactive
COc1ccccc1-c1cnc2c(c1)C(=O)N([C@H](C)CO)C[C@H](C)[C@H](CN(C)C(=O)c1cccnc1)O2,inactive,inactive,inactive
C#CCCC(=O)NS(=O)(=O)c1ccccc1,inactive,inactive,inactive
C[C@@H]1CN([C@H](C)CO)S(=O)(=O)c2ccc(C#CC3(O)CCCC3)cc2O[C@@H]1CN(C)C(=O)Cc1cccnc1,inactive,inactive,inactive

# From the antibiotic and cytotoxicity screens of Wong et al. (2023)
